This is an account of results in FireProtDB.

“And” between values parts separate entries of the source, which are not always exact repeats. Equal values may be shown once.

The mark [1] stands for this setting: Homo sapiens, pH 5, 20 °C, GdnHCl, CD, Sodium acetate 0.01 M, reversible: yes.
Setting [2] is: Homo sapiens, pH 7, 20 °C, Urea, CD, Sodium phosphate 10 mM, reversible: no.
[3] abbreviates: Homo sapiens, 25 °C, Urea, Fluorescence, transition: 2.
[4] abbreviates: Gallus gallus, pH 0.9, 25 °C, GdnHCl, CD, Unknown, KCl 0.6 M, reversible: yes.
Setting [5] is: Gallus gallus, pH 0.9, 25 °C, GdnHCl, CD, Unknown, KCl 0.6 M, transition: 3, reversible: yes.
[6] abbreviates: Gallus gallus, pH 2.2, 25 °C, GdnHCl, CD, Unknown, KCl 0.6 M, reversible: yes.
[7] abbreviates: Gallus gallus, pH 2, Thermal, DSC, Unknown, reversible: Unknown.
The mark [8] stands for this setting: Gallus gallus, pH 5.2, 20 °C, GdnHCl, CD, NaOAc 20 mM, reversible: Unknown.
The mark [9] stands for this setting: Gallus gallus, pH 7.5, 25 °C, Thermal, CD, Sodium phosphate 0.01 M, NaCl 0.15 M, reversible: yes.
Setting [10] is: Gallus gallus, pH 3, Thermal, DSC, glycine 0.05 M, reversible: yes.
[11] abbreviates: Gallus gallus, pH 3.8, Thermal, NMR, sodium acetate 240 mM, reversible: yes.
[12] abbreviates: Gallus gallus, pH 2, Thermal, DSC, glycine 0.04 M, reversible: yes.
Setting [13] is: Gallus gallus, pH 3.8, Thermal, DSC, glycine-HCl 50 mM, reversible: Unknown.

In general, Tm refers to the temperature at the midpoint of the melting transition. Take “Alpha-1-acid glycoprotein 1 wild type (sequence left out)”: under setting [1], the “denaturant midpoint (higher = more stable)” value (from here on “denaturant midpoint”) worked out at 2.1 M and the unfolding free energy stood at 5.1 kcal/mol. Besides, where the note is “Homo sapiens, pH 5.25, Thermal, CD, glycylglycine 0.05 M, reversible: yes”, the melting temperature (Tm) came out at 46.6 °C.
Regarding “Beta-2-microglobulin wild type (sequence left out)”, under “Homo sapiens, pH 7, Thermal, fluorescence, reversible: Unknown”, the Tm was 60.1 °C.
On to “Beta-2-microglobulin wild type (sequence not shown)”, for which, under “Homo sapiens, pH 8, Thermal, CD, Tris-HCl 20mM, NaCl 150mM, reversible: Unknown”, the melting temperature (Tm) was 62.4 °C.
In the case of “Fibroblast growth factor 2 wild type (letters omitted)”, under setting [2], the “denaturant midpoint” value worked out at 2.3 M and the unfolding free energy worked out at 6.5 kcal/mol.
In the case of “Fibroblast growth factor 2 wild type (no sequence given)”, the unfolding free energy was 5.08 kcal/mol (Homo sapiens, pH 6.2, 25 °C, GdnHCl, DSC, N-(2-acetamino)iminodiacetic acid (ADA) 20 mM, NaCl 0.1 M, reversible: yes) and 5.24 kcal/mol (Homo sapiens, pH 6.2, 25 °C, GdnHCl, Fluorescence, N-(2-acetamino)iminodiacetic acid (ADA) 20 mM, NaCl 0.1 M, reversible: yes).
As to “Fibroblast growth factor 2 wild type (sequence not shown)”, the Tm (Homo sapiens, pH 7.2, Thermal, CD, Sodium phosphate 6 mM, NaCl 120 mM, reversible: yes) was found to be 45 °C.
As to “Immunoglobulin heavy constant gamma 1 wild type (letters omitted)”, under setting [3], the denaturant m value was 1.69 kcal/mol/M and 1.74 kcal/mol/M; the unfolding free energy was 5.2 kcal/mol and 5.4 kcal/mol. The Tm (Homo sapiens, pH 7.4, Thermal, CD, PBS, transition: 2) was determined as 52.6 °C.
In the case of “Lysozyme C wild type (chain not printed)”, under “Gallus gallus, pH 3.8, Thermal, CD, Unknown, reversible: yes”, the Tm was 74.3 °C.
As for Lysozyme C wild type (letters omitted), the denaturant m value came out at 2.48 kcal/mol/M under setting [4], 1.26 kcal/mol/M under setting [5] and 2.53 kcal/mol/M under setting [6]. Also, the unfolding free energy reads like this: under setting [4], 4.84 kcal/mol; under setting [5], 3.63 kcal/mol; under setting [6], 5.79 kcal/mol.
For “Lysozyme C wild type (no sequence given)”, under setting [7], the Tm worked out at 55 °C and the “unfolding enthalpy (calorimetric)” value turned out to be 102 kcal/mol. Further, under setting [8], the denaturant m value worked out at 2.63 kcal/mol/M and the unfolding free energy amounted to 11.1 kcal/mol. In addition, the Tm (Gallus gallus, pH 7, Thermal, CD, Potassium phosphate 66 mM, reversible: yes) came to 74.8 °C. The midpoint of thermal melting (Tm) (Gallus gallus, pH 7, Thermal, CD, phosphate 66 mM, reversible: yes) was 74.8 °C. Further, under setting [9], the “heat capacity change of unfolding” value turned out to be 1.5 kcal/mol/K; the unfolding free energy was 3.6 kcal/mol and 5 kcal/mol and 4.8 kcal/mol.
“Lysozyme C wild type (sequence left out)”: under “Gallus gallus, pH 2.7, Thermal, DSC, glycine-HCl 50 mM, reversible: yes”, the melting temperature (Tm) amounted to 65.6 °C. Besides, the unfolding free energy (Gallus gallus, pH 3, 25 °C, Thermal, DSC, glycine 0.05 M, reversible: yes) came to 11 kcal/mol. Under setting [10], the Tm was 72.5 °C, the “heat capacity change of unfolding” value was found to be 1.48 kcal/mol/K and the “unfolding enthalpy (calorimetric)” value is 117 kcal/mol. In addition, under setting [11], the midpoint of thermal melting (Tm) came to 74.8 °C and the “unfolding enthalpy (van 't Hoff)” value amounted to 93.7 kcal/mol.
Consider “Lysozyme C wild type (sequence not shown)”, for which, under setting [12], the midpoint of thermal melting (Tm) is 52 °C, the “heat capacity change of unfolding” value was determined as 1.55 kcal/mol/K, the “unfolding enthalpy (calorimetric)” value worked out at 91.2 kcal/mol and the “unfolding enthalpy (van 't Hoff)” value was found to be 89.5 kcal/mol. Further, where the note is “Gallus gallus, pH 3.8, 25 °C, Thermal, DSC, glycine-HCl 50 mM, reversible: Unknown”, the unfolding free energy was 12.9 kcal/mol. Moreover, under setting [13], the melting temperature (Tm) turned out to be 77.5 °C, the “heat capacity change of unfolding” value was 1.51 kcal/mol/K and the “unfolding enthalpy (calorimetric)” value was found to be 129 kcal/mol. Moreover, where the note is “Gallus gallus, pH 5.4, 20 °C, LiCl, Absorbance, Unknown, reversible: Unknown”, the unfolding free energy turned out to be 20 kcal/mol. Besides, under “Gallus gallus, pH 5.5, 35 °C, GdnHCl, Fluorescence, sodium acetate 0.1 M, HCl, reversible: Unknown”, the “denaturant midpoint” value was 3.4 M.
In the case of “Triosephosphate isomerase wild type (sequence left out)”, the unfolding free energy (Oryctolagus cuniculus, pH 7.4, 25 °C, GdnHCl, Fluorescence, phosphate 50 mM, reversible: Unknown) was 17 kcal/mol and 16.5 kcal/mol.
